Experimental findings from the supplement of paper PMC10037445 are described below.

The test system of assay [1] is RAW-Dual. Nature of the assay: IRF Lucia reporter activity, fold change vs agonist alone; cytotoxicity flag (confluency mask): not cytotoxic; higher = enhanced IRF activity. In short, it runs like this:
(§1)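 Reporter activity is given as fold change relative to agonist-alone wells. To measure it, 50 nL of library stock was pin-tooled onto RAW-Dual macrophages (50,000 cells/well, DMEM, 384-well plates), a PRR agonist followed 1 h later, and cells stayed at 37 °C, 5% CO2. Twenty hours on, supernatant was assayed for IRF (QuantiLuc luminescence) and NF-κB (QuantiBlue, 620 nm absorbance), and wells under 70% of agonist-control IncuCyte confluency in both mask sets were marked cytotoxic.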

The subject of assay [2] is RAW-Dual. Put plainly: IRF Lucia reporter activity, fold change vs agonist alone; higher = enhanced IRF activity. The conditions noted are these: library stock concentration (final ~1000-fold dilution): 10 mM, agonist: MPLA (TLR4) […]. In short, it runs like this: as §1
Assay [3] deals with RAW-Dual. Nature of the assay: IRF Lucia reporter activity, fold change vs agonist alone; cytotoxicity flag (confluency mask): cytotoxic (confluency <70% of control); higher = enhanced IRF activity. In short, it runs like this:
as §1

Where [4] appears, read: agonist: 3'3'-cGAMP (STING) 10 ug/mL.
Setting [5] is: cytotoxicity flag (confluency mask): not cytotoxic.
Where [6] appears, read: cytotoxicity flag (confluency mask): cytotoxic (confluency <70% of control).

Over roughly 2,900 compounds, “IRF Lucia reporter activity, fold change vs agonist alone” has its median near 0.9; the highest 2% begin near 2.8. Some of the results follow.

In the case of `Nc1nc(N)c(N=O)c(OCC2CCCCC2)n1` (library stock concentration (final ~1000-fold dilution): 10 mM), the “IRF Lucia reporter activity” value in the assay with RAW-Dual [1] (setting [4]) turned out to be 0.368; in the assay on RAW-Dual [1] (agonist: LPS (TLR4) 0.1 ug/mL), 0.667.

Take `Nc1nc(N)c(N=O)c(OCC2CCCCC2)n1`: the “IRF Lucia reporter activity” value in the assay on RAW-Dual [2] (setting [5]) was 0.796.

For the compound `Cn1cnc2c(F)c(Nc3ccc(Br)cc3F)c(C(=O)NOCCO)cc21` (library stock concentration (final ~1000-fold dilution): 10 mM), the entries for the “IRF Lucia reporter activity” value in the assay on RAW-Dual [1] (setting [4]) and in the assay on RAW-Dual [1] (agonist: LPS (TLR4) 0.1 ug/mL) were 0.728 and 2.67, respectively.

For the compound `Cn1cnc2c(F)c(Nc3ccc(Br)cc3F)c(C(=O)NOCCO)cc21`, in the assay on RAW-Dual [2] (setting [5]), the “IRF Lucia reporter activity” value was 2.67.

As for `CC(Nc1ncnc2[nH]cnc12)c1cc2cccc(Cl)c2c(=O)n1-c1ccccc1` (stereo unspecified), in the assay on RAW-Dual [2] (setting [5]), the “IRF Lucia reporter activity” value is 1.42.

Take `CC(Nc1ncnc2[nH]cnc12)c1cc2cccc(Cl)c2c(=O)n1-c1ccccc1` (stereo unspecified) (library stock concentration (final ~1000-fold dilution): 10 mM): the “IRF Lucia reporter activity” value was found to be 0.659 with RAW-Dual [1] (setting [4]) and 0.799 in the assay on RAW-Dual [1] (agonist: LPS (TLR4) 0.1 ug/mL).

Regarding `COc1cc(C(=O)O)ccc1O` (library stock concentration (final ~1000-fold dilution): 10 mM), the entries for the “IRF Lucia reporter activity” value with RAW-Dual [1] (setting [4]) and with RAW-Dual [1] (agonist: LPS (TLR4) 0.1 ug/mL) were 1.13 and 1.35, respectively.

For the compound `CCCCCCCCCCCCCCCCn1cc[n+](Cc2ccccc2)c1C` (library stock concentration (final ~1000-fold dilution): 10 mM), the “IRF Lucia reporter activity” value with RAW-Dual [1] (setting [4]) was 0.0559; in the assay on RAW-Dual [1] (agonist: LPS (TLR4) 0.1 ug/mL) it was 0.246.

Turning to `CCCCCCCCCCCCCCCCn1cc[n+](Cc2ccccc2)c1C`, in the assay with RAW-Dual [2] (setting [5]), the “IRF Lucia reporter activity” value came out at 0.351.

For the compound `O=C(CCNNC(=O)c1ccncc1)NCc1ccccc1`, in the assay on RAW-Dual [2] (setting [5]), the “IRF Lucia reporter activity” value amounted to 1.02.

For the compound `O=C(CCNNC(=O)c1ccncc1)NCc1ccccc1` (library stock concentration (final ~1000-fold dilution): 10 mM), the “IRF Lucia reporter activity” value in the assay with RAW-Dual [1] (setting [4]) turned out to be 1.04; in the assay on RAW-Dual [1] (agonist: LPS (TLR4) 0.1 ug/mL), 1.16.

In the case of `Cc1cnc(-c2ccccc2C(C)C)nc1NCc1ccc(-n2ccnn2)cc1` (library stock concentration (final ~1000-fold dilution): 10 mM), the “IRF Lucia reporter activity” value came to 0.223 in the assay with RAW-Dual [1] (setting [4]) and 0.691 with RAW-Dual [1] (agonist: LPS (TLR4) 0.1 ug/mL).

For `Cc1cnc(-c2ccccc2C(C)C)nc1NCc1ccc(-n2ccnn2)cc1`, in the assay on RAW-Dual [2] (setting [5]), the “IRF Lucia reporter activity” value was found to be 0.691.

In the case of `Nc1ccc(-c2ccc3ncc4ccc(=O)n(-c5cccc(C(F)(F)F)c5)c4c3c2)cn1` (library stock concentration (final ~1000-fold dilution): 10 mM), the “IRF Lucia reporter activity” value in the assay on RAW-Dual [3] (setting [4]) came out at 0.0925; in the assay with RAW-Dual [3] (agonist: LPS (TLR4) 0.1 ug/mL), 1.65.

Consider `Nc1ccc(-c2ccc3ncc4ccc(=O)n(-c5cccc(C(F)(F)F)c5)c4c3c2)cn1`, for which the “IRF Lucia reporter activity” value in the assay with RAW-Dual [2] (setting [6]) is 2.11.

For `COC(=O)C(CCSC)NC(=O)c1ccc(NCC(N)CS)cc1-c1ccccc1.Cl` (stereo unspecified), the “IRF Lucia reporter activity” value in the assay on RAW-Dual [2] (setting [5]) amounted to 0.862.

For the compound `COC(=O)C(CCSC)NC(=O)c1ccc(NCC(N)CS)cc1-c1ccccc1.Cl` (stereo unspecified) (library stock concentration (final ~1000-fold dilution): 10 mM), the results for the “IRF Lucia reporter activity” value in the assay on RAW-Dual [1] (setting [4]) and with RAW-Dual [1] (agonist: LPS (TLR4) 0.1 ug/mL) were 0.149 and 0.817, respectively.

Consider `O=c1n(CCCN2CCN(c3cccc(Cl)c3)CC2)nc2ccccn12`, for which, in the assay with RAW-Dual [2] (setting [5]), the “IRF Lucia reporter activity” value is 1.15.

For `O=c1n(CCCN2CCN(c3cccc(Cl)c3)CC2)nc2ccccn12` (library stock concentration (final ~1000-fold dilution): 10 mM), the “IRF Lucia reporter activity” value with RAW-Dual [1] (setting [4]) amounted to 0.739; in the assay on RAW-Dual [1] (agonist: LPS (TLR4) 0.1 ug/mL), 1.13.

Regarding `Cc1ccccc1C(C(=O)NC1CCCCC1)N(C(=O)Cn1ccnc1C)c1cccc(F)c1` (stereo unspecified), in the assay on RAW-Dual [2] (setting [5]), the “IRF Lucia reporter activity” value amounted to 1.05.

Regarding `Cc1ccccc1C(C(=O)NC1CCCCC1)N(C(=O)Cn1ccnc1C)c1cccc(F)c1` (stereo unspecified) (library stock concentration (final ~1000-fold dilution): 10 mM), the “IRF Lucia reporter activity” value in the assay on RAW-Dual [1] (setting [4]) was found to be 0.428; in the assay on RAW-Dual [1] (agonist: LPS (TLR4) 0.1 ug/mL) it was 0.74.

In the case of `CC(C)CN(CC(O)C(Cc1ccccc1)NC(=O)OC1CCOC1)S(=O)(=O)c1ccc(N)cc1` (stereo unspecified) (library stock concentration (final ~1000-fold dilution): 10 mM), the results for the “IRF Lucia reporter activity” value with RAW-Dual [1] (setting [4]) and in the assay with RAW-Dual [1] (agonist: LPS (TLR4) 0.1 ug/mL) were 1.05 and 0.93, respectively.

In the case of `CC(C)CN(CC(O)C(Cc1ccccc1)NC(=O)OC1CCOC1)S(=O)(=O)c1ccc(N)cc1` (stereo unspecified), the “IRF Lucia reporter activity” value in the assay with RAW-Dual [2] (setting [5]) was determined as 1.08.

For the compound `C[C@@H]1O[C@@H](O[C@H]2[C@H](OC(=O)[C@]34CCC(C)(C)C[C@H]3C3=CC[C@@H]5[C@@]6(C)C[C@H](O)[C@H](O[C@@H]7O[C@H](CO)[C@@H](O)[C@H](O)[C@H]7O)[C@@](C)(CO)[C@@H]6CC[C@@]5(C)[C@]3(C)CC4)O[C@H](CO)[C@@H](O)[C@@H]2O)[C@H](O)[C@H](O)[C@H]1O[C@@H]1OC[C@@H](O)[C@H](O)[C@H]1O` (library stock concentration (final ~1000-fold dilution): 10 mM), the figures for the “IRF Lucia reporter activity” value in the assay with RAW-Dual [1] (setting [4]) and in the assay with RAW-Dual [1] (agonist: LPS (TLR4) 0.1 ug/mL) were 0.937 and 1.09, respectively.

Regarding `CC1COC(Nc2ccc3ncnc(Nc4ccc(OCc5nccs5)c(Cl)c4)c3c2)=N1` (stereo unspecified), the “IRF Lucia reporter activity” value with RAW-Dual [2] (setting [5]) was 1.24.

With `CC1COC(Nc2ccc3ncnc(Nc4ccc(OCc5nccs5)c(Cl)c4)c3c2)=N1` (stereo unspecified) (library stock concentration (final ~1000-fold dilution): 10 mM), the “IRF Lucia reporter activity” value in the assay with RAW-Dual [1] (setting [4]) worked out at 0.243; in the assay on RAW-Dual [1] (agonist: LPS (TLR4) 0.1 ug/mL), 1.15.

As to `Cc1ccc(-n2nc(C(C)(C)C)cc2NC(=O)NCc2cc(F)ccc2Oc2ccc3c(cnn3CCO)c2)cc1` (library stock concentration (final ~1000-fold dilution): 10 mM), the “IRF Lucia reporter activity” value in the assay with RAW-Dual [1] (setting [4]) is 1.3; with RAW-Dual [1] (agonist: LPS (TLR4) 0.1 ug/mL), 0.522.

In the case of `O=C(OC(C(F)(F)F)C(F)(F)F)N1CCN(Cc2ccc(C(F)(F)F)cc2N2CCCC2)CC1` (library stock concentration (final ~1000-fold dilution): 10 mM), the “IRF Lucia reporter activity” value with RAW-Dual [1] (setting [4]) was 1.15; in the assay on RAW-Dual [1] (agonist: LPS (TLR4) 0.1 ug/mL), 1.08.

`Oc1ccc(-c2nc(-c3ccc(F)cc3)c(-c3ccncc3)[nH]2)cc1`: the “IRF Lucia reporter activity” value in the assay with RAW-Dual [2] (setting [5]) is 0.862.

Consider `Oc1ccc(-c2nc(-c3ccc(F)cc3)c(-c3ccncc3)[nH]2)cc1` (library stock concentration (final ~1000-fold dilution): 10 mM), for which the “IRF Lucia reporter activity” value in the assay on RAW-Dual [1] (setting [4]) amounted to 0.0683; with RAW-Dual [1] (agonist: LPS (TLR4) 0.1 ug/mL), 1.28.

As for `Cl.NCCOCCOCCNC(=O)Cc1ccc(Nc2nc(NCc3ccc(F)cc3)nc(NCC3CCCCC3)n2)cc1`, the “IRF Lucia reporter activity” value with RAW-Dual [2] (setting [6]) was found to be 1.

As to `Cl.NCCOCCOCCNC(=O)Cc1ccc(Nc2nc(NCc3ccc(F)cc3)nc(NCC3CCCCC3)n2)cc1` (library stock concentration (final ~1000-fold dilution): 10 mM), the “IRF Lucia reporter activity” value in the assay on RAW-Dual [3] (setting [4]) was found to be 0.52; with RAW-Dual [3] (agonist: LPS (TLR4) 0.1 ug/mL) it was 0.496.

As to `OCCn1cc(-c2cnc3nnn(Cc4ccc5ncccc5c4)c3n2)cn1`, in the assay with RAW-Dual [2] (setting [5]), the “IRF Lucia reporter activity” value is 1.05.

In the case of `OCCn1cc(-c2cnc3nnn(Cc4ccc5ncccc5c4)c3n2)cn1` (library stock concentration (final ~1000-fold dilution): 10 mM), the “IRF Lucia reporter activity” value with RAW-Dual [1] (setting [4]) was determined as 0.894; in the assay on RAW-Dual [1] (agonist: LPS (TLR4) 0.1 ug/mL), 0.806.

As for `CCCCc1oc2ccccc2c1C(=O)c1cc(I)c(OCCN(CC)CC)c(I)c1.Cl` (library stock concentration (final ~1000-fold dilution): 10 mM), the “IRF Lucia reporter activity” value in the assay with RAW-Dual [1] (setting [4]) was determined as 0.286; with RAW-Dual [1] (agonist: LPS (TLR4) 0.1 ug/mL), 1.28.

As to `CCCCc1oc2ccccc2c1C(=O)c1cc(I)c(OCCN(CC)CC)c(I)c1.Cl`, the “IRF Lucia reporter activity” value with RAW-Dual [2] (setting [5]) came out at 1.54.
